The text below walks through data of PubChem BioAssay AID488969 (Vanderbilt High Throughput Screening Facility, 2010).

Each structure is given as a SMILES string. The full ranking holds about 110,000 compounds; the median of “z-score” is about -0.1, and the highest 2% start at about 2. The list shows a part of the results. Active and inactive are the calls of the source.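 The calls were made as follows: active = z-score in the third read window above 3 or below -3; inactive = the rest.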 Non-standard residues stand in square brackets, D forms with d. Residues, ends and D or L forms follow the SMILES beside them. ξ: configuration not given here. *: point of attachment. Boc = CC(C)(C)OC(=O)*; ξP = O=C(O)C1CCCN1

For the assay, the target named is Metabotropic glutamate receptor 8 (Rattus norvegicus) (UniProt P70579). Briefly: rat mGluR8 modulators via GIRK flux, primary screen, cell-based, thallium flux, HTS (AID 488969). The settings on record: HEK293 rat mGluR8, GIRK (G protein-gated inwardly rectifying potassium channel) thallium flux, FluoZin2; at 10 µM; stronger effect = higher value; submaximal glutamate (EC20) added with thallium.
Sequence of UniProt P70579 (P70579 whole entry, looked up): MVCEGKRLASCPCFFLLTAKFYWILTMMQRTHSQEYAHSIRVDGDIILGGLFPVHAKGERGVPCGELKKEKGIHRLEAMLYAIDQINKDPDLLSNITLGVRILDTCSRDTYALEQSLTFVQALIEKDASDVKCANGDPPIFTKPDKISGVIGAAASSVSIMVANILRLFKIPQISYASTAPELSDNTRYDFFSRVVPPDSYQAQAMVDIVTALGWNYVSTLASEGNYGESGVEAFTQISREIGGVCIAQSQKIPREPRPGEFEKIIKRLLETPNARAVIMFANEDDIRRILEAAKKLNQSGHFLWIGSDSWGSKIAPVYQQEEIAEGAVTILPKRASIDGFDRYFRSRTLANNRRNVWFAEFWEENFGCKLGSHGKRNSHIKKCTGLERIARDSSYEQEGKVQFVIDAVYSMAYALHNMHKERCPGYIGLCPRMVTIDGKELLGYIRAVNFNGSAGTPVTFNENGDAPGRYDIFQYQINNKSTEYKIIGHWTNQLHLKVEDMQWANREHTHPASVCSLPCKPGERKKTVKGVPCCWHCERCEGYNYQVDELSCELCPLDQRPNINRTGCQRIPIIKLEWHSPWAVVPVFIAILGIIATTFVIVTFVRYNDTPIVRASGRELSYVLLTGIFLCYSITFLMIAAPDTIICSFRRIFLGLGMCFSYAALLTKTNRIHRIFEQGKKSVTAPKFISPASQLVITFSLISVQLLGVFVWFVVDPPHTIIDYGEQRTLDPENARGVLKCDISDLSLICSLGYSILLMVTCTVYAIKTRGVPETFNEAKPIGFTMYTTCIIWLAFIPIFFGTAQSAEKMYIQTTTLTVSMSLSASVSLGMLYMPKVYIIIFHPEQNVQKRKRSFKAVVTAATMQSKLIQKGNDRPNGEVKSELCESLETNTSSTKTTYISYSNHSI
`COc1ccc(/C=C/C(=O)Nc2cc(C(F)(F)F)ccc2Cl)cc1OC` gave a z-score of -0.241.

`C=CCn1c(CSc2nc3ccccc3s2)nnc1SCC(=O)NCc1ccccc1` came in with a z-score of -0.287.

On to `Cc1ccc(S(=O)(=O)N2CCN(CC(=O)N/N=C/c3ccc(Br)s3)CC2)cc1`, for which the z-score was -0.366.

`O=C(c1n[nH]c(=O)c2ccccc12)N1CCN(C2c3ccccc3-c3ccccc32)CC1`: the z-score is -0.135.

`CCCCOC(=O)Nc1ccc(N(C)C)cc1` showed a z-score of -0.00985.

The compound `Cc1ccc2nc(/C(C#N)=C\c3ccc(Oc4ccc([N+](=O)[O-])cn4)cc3)[nH]c2c1` had a z-score of -0.462.

`CCOc1ccc(/C(=N\O)C(C)NO)cc1` (configuration not stated) registered a z-score of -0.811.

The compound `Cc1[nH]c(C(=O)N/N=C/c2ccc(C(=O)O)cc2)c(C)c1C(=O)N/N=C/c1ccc(C(=O)O)cc1` returned a z-score of -0.0407.

`COC(=O)c1ccc(CSc2nnc(NCc3ccccc3)s2)o1` returned a z-score of -1.04.

`CN(c1ccccc1)c1nc(N2CCCC2)nc(-n2ccnc2)n1` returned a z-score of -0.407.

On to `Cc1ccccc1/C(N)=N/OC(=O)/C=C/c1ccccc1`, for which the z-score came to 1.6.

As to `O=C(NC(=S)Nc1cc(-c2nc3ccccc3[nH]2)ccc1Cl)c1ccc2c(c1)OCO2`, the z-score is -0.223.

With `FC(F)Sc1ccc(NC(=S)NC2CCC(NC(=S)Nc3ccc(SC(F)F)cc3)CC2)cc1` (configuration not stated), the z-score was -0.2.

`CC(C)C(=O)Nc1ccc2c(c1)C(=O)N(CCC(=O)O)C2=O` came in with a z-score of 0.16.

In turn, `COc1ccccc1CN=Cc1[nH]c2ccc(Br)c(Cl)c2c1O` showed a z-score of -0.742.

Regarding `COc1ccc(C(CC(=O)Nc2ccccc2OC)n2cccc2)cc1` (configuration not stated), the z-score is -0.113.

In turn, `Cn1nc(-c2ccc(N3CCOCC3)c(NS(=O)(=O)c3ccccc3)c2)c2ccccc2c1=O` had a z-score of -0.135.

Take `Cc1ccc(NC(=O)C2CCCN2C(=O)NC2CCCCC2)c(C)c1` (configuration not stated): the z-score stood at 0.897.

Compound `CCOP(=O)(O)c1ccccc1OCCCCCOc1ccccc1P(=O)(O)OCC` showed a z-score of -0.285.

In the case of `O=C(NC12CC3CC(CC(C3)C1)C2)N1CCN(C(=O)C2CCCO2)CC1` (configuration not stated), the z-score was determined as 0.11.

The compound `Cc1ccccc1NC(=S)/C(=C(\[O-])c1ccc(C)c([N+](=O)[O-])c1)[n+]1ccccc1` had a z-score of 0.013.

As for `O=C(CSc1nnc(-c2ccncc2)n1-c1ccc(Cl)cc1)NCc1cccs1`, the z-score was -0.067.

For `CCSc1nnc(NC(=O)c2csc(C)c2)s1`, the z-score was -0.162.

Consider `COc1ccc(OC)c(NC(=O)C(Sc2ccccc2)c2ccccc2)c1` (configuration not stated), for which the z-score is 0.629.

For `CC(NC(=O)c1cccc(N2CCCC2=O)c1)c1ccc2c(c1)OCCO2` (configuration not stated), the z-score was -0.699.

In the case of `COc1ccc(OCC(O)CN2CCN(Cc3ccc4c(c3)OCO4)CC2)cc1` (configuration not stated), the z-score is -0.0487.

`Cc1oc2nc(SCC(=O)NCCCO)nc(N)c2c1C` yielded a z-score of -0.517.

Compound `O=C(Nc1ncnc2c1ncn2C1OC(COC(=O)c2ccccc2)C(F)C1O)c1ccccc1` (configuration not stated) registered a z-score of -0.732.

In turn, `CCC(CC)C(=O)NCCc1ccc(F)cc1` registered a z-score of -0.0973.

Turning to `Cc1ccc(C)c(N2CCN(c3cnn(-c4nc5ccccc5s4)c(=O)c3Cl)CC2)c1`, the z-score was -0.242.

Consider `Cn1c(=O)c2c(nc(CN3CCN(CCO)CC3)n2Cc2cccc3ccccc23)n(C)c1=O`, for which the z-score stood at 0.179.

`CC(=O)c1ccc(OCc2ccc(Oc3c(Cl)cccc3[N+](=O)[O-])cc2)cc1` yielded a z-score of -0.331.

In turn, `Cc1cc(=O)[nH]c(SCC(=O)N2CCC(C(N)=O)CC2)n1` displayed a z-score of 0.0875.

Compound `CCn1cnc2sc(C)c(C)c2c1=O` yielded a z-score of -0.0555.

Regarding `CCc1ccc(CCC(=O)Nc2sc3c(c2C#N)CCCC3)o1`, the z-score is 0.975.

Turning to `COc1ccc2c(C(=O)CN3CC(C)OC(C)C3)c[nH]c2c1` (configuration not stated), the z-score is -0.0527.

The compound `NCCc1nnc(SCc2ccc(F)cc2)o1` came in with a z-score of -0.111.

Turning to `c1ccc2c(NC3CCCC3)nnc(NC3CCCC3)c2c1`, the z-score was active: 3.18.

`CCOc1cccc2cc(C(=O)N3CCc4ccccc43)c(=O)oc12` had a z-score of 0.17.

The compound `CCc1ccccc1N1C(=O)C2CC(C)=C(C)CC2C1=O` (configuration not stated) displayed a z-score of 0.39.

Regarding `COc1ccccc1-c1nc2ccccc2nc1-c1ccccc1OC`, the z-score is -0.156.

Turning to `CC1(C)Cc2ccccc2-c2nnc(SCc3ccccc3)n21`, the z-score is -0.0898.

With `CCOC(=O)c1[nH]c2ccc(F)cc2c1NC(=O)CN1CCN(C/C=C/c2ccccc2)CC1`, the z-score is -0.0288.

As to `O=C(COC(=O)c1ccc2c(c1)C(=O)N(c1cccc3ncccc13)C2=O)c1ccc(Cl)cc1`, the z-score is -0.619.

`CCOC(=O)C1CCCN(C(=O)c2cc3ncc(Br)cn3n2)C1` (configuration not stated): the z-score amounted to 0.117.

The compound `CC(C)Cn1c(SCC(=O)NCc2ccc(Cl)cc2)nnc1-c1cccc(S(=O)(=O)N2CCOCC2)c1` gave a z-score of -0.0221.

`O=C(O)c1ccc(C2CCCCC2)cn1` came in with a z-score of -0.374.

With `N#Cc1nc(Cc2cccc3ccccc23)oc1NCCN1CCOCC1`, the z-score was 0.571.

Turning to `CSc1ncccc1C(=O)OCc1ccc(COC(=O)c2cccnc2SC)cc1`, the z-score was -0.347.

As to `CCOc1ccccc1N1CC(C(=O)NCCc2ccc(S(N)(=O)=O)cc2)CC1=O` (configuration not stated), the z-score was determined as 0.0844.

`CCCCn1c(N)c(N(CCOC)C(=O)CSc2nc3ccc(C)cc3[nH]2)c(=O)[nH]c1=O` gave a z-score of 0.298.

`COc1ccccc1C(=O)COC(=O)c1ccccc1OCC(=O)Nc1ccc(SC(F)F)cc1` displayed a z-score of 1.1.

`O=C(N/N=C/c1cn(Cc2ccccc2)c2ccccc12)c1cccnc1` returned a z-score of -0.306.

On to `Cc1ccc(Nc2nc3c([nH]2)c(=O)n(C)c(=O)n3C)cc1`, for which the z-score was determined as 0.461.

The compound `Cc1cc(C)cc(OCC(=O)NNC(=O)c2cc3ccccc3oc2=O)c1` came in with a z-score of 0.267.

`O=C(COC(=O)C12CC3CC(CC(C3)C1)C2)NC12CC3CC(CC(C3)C1)C2`: the z-score was -0.0359.

In turn, `CCN(CC)C(=O)CSc1nc2ccc(NC(=O)CSc3nnc(N)s3)cc2s1` gave a z-score of -0.276.

In turn, `COC(=O)CNC(=O)C1CCCN1C(=O)CNC(=O)OC(C)(C)C` (stereo not drawn) (Boc-Gly-[ξP]-Gly-OMe) displayed a z-score of 0.349.

Compound `Cc1ccc(N/N=C2/CCCNC2=O)cc1` came in with a z-score of 0.0566.

Regarding `O=C(C/C=N/OCc1c(Cl)cccc1Cl)c1ccc(Cl)cc1`, the z-score was found to be 0.24.

In turn, `O=C(CCC(=O)N1CCCc2ccccc21)N1CCN(S(=O)(=O)c2ccccc2)CC1` showed a z-score of 0.123.

The compound `CCn1c(Cn2nnc(-c3ccccc3)n2)nnc1SCC(=O)N1CCOCC1` had a z-score of 0.0376.

Regarding `CCOC(=O)CSc1nc(C)c2ccc(C)cc2n1`, the z-score was -0.413.

The compound `O=C(NCC1CCCO1)C1CCN(C(=O)c2ccc(Br)cc2)CC1` (configuration not stated) yielded a z-score of -0.38.

`Cc1cccc(NC(=O)NCCN2C(=O)C3C4C=CC(C4)C3C2=O)c1` (configuration not stated) registered a z-score of 0.0971.

`Cc1c(NC(=O)C(C)Sc2ccccc2)c(=O)n(-c2ccccc2)n1C` (configuration not stated): the z-score amounted to 0.277.

Consider `O=C(C1CCN(c2nnc(-n3cccc3)s2)CC1)N1CCN(c2cccc(C(F)(F)F)c2)CC1`, for which the z-score was -0.569.
